Measurements published in paper PMC4336329 (PLoS ONE, 2015).
Hit rate of the full screen: of about 310,000 compounds, about 2,200 (0.71%) showed an effect of 50% or more. The effect is printed as a negative number. Some of the results follow.

target: human ether-à-go-go-related gene (hERG) potassium channel (human, UniProt Q12809); assay: primary screen, population patch clamp on CHO cells stably expressing hERG
Sequence (Q12809 whole entry, looked up): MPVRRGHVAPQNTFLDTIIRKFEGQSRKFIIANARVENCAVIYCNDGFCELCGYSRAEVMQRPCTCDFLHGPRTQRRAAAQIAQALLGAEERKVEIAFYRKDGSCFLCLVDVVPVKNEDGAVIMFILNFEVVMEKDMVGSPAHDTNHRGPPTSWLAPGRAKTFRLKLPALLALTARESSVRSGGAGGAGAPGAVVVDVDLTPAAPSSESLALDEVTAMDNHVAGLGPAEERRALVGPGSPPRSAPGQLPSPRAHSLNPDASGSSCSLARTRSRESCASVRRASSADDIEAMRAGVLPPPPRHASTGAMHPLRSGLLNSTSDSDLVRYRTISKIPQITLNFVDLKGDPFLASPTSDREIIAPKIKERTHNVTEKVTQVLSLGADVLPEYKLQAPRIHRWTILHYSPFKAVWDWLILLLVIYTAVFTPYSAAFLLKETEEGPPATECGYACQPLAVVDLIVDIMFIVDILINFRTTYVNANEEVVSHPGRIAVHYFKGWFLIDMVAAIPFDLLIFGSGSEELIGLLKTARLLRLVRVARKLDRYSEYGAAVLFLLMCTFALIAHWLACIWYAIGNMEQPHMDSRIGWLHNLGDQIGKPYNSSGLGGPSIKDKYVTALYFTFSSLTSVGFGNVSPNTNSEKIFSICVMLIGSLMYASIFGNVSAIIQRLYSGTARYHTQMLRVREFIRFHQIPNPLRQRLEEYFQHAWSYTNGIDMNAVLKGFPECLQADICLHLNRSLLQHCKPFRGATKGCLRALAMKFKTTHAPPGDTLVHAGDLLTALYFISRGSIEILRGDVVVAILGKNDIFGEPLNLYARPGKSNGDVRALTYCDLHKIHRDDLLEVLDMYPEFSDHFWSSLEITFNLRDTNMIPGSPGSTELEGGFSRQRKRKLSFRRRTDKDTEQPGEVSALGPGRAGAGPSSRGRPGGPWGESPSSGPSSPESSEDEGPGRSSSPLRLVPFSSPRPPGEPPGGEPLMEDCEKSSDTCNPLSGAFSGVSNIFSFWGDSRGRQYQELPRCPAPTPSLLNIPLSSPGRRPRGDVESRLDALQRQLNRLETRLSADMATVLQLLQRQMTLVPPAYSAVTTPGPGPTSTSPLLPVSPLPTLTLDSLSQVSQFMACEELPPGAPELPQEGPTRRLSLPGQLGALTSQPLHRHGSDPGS

Compound	hERG current change (%, negative = inhibition) at 1uM
CCOC(=O)c1oc2ccccc2c1NC(=O)c1ccc(S(=O)(=O)N(C)C)cc1	14.1%
COc1ccc(/C=N/Nc2ccccc2C(=O)O)cc1Cn1cc([N+](=O)[O-])cn1	6.26%
O=C1NC2(CCCCCC2)C(=O)N1Cc1ccccc1Cl	15.6%
O=C(NC1CCCC1)c1ccc(COCC(F)(F)C(F)F)o1	-5.82%
O=C(NCC(=O)N(c1ccc(F)cc1)C(C(=O)NCC1CCCO1)c1ccccc1)c1ccco1 (centres unmarked)	0.696%
CC(C)NC(=S)n1cc(C(=O)c2cc(Cl)cc(Cl)c2O)cn1	14%
COC(=O)C1CCCCN1C(=O)c1cc(COc2cccc3cccnc23)on1 (centres unmarked)	9.55%
O=C(COC(=O)c1ccc(F)cc1F)Nc1cccnc1Cl	-24%
CCc1ccc(C2=NN(CCC(=O)NC(C)c3ccc4c(c3)OCCO4)C(=O)CC2)cc1 (centres unmarked)	2.13%
CC(C)c1ccc(O)c(N)c1	3.43%
COc1ccc(OC)c(S(=O)(=O)n2ccc(C)n2)c1	9.44%
CCC1C2CN(C(C)=O)CC=C2C(C#N)=C(N)C1(C#N)C#N (centres unmarked)	9.49%
O=C(COC(=O)/C=C/c1cnc2ccccc2n1)NCC(F)(F)F	14%
O=C(COC(=O)c1cc2ccccc2oc1=O)Nc1ccc(F)cc1F	2.58%
CCN(CC)CCn1c(=N)n(CC(O)c2ccco2)c2ccccc21.Cl (centres unmarked)	-54.6%
O=S(c1ccsc1)c1ccsc1	5.18%
COc1ccc(OCCSc2nc3ccccc3c(=O)[nH]2)cc1	10%
CCOC(=O)C1=C(CN2CCN(CCC#N)CC2)NC(=O)NC1c1ccc2c(c1)OCO2 (centres unmarked)	-7.21%
CCCN(C(=O)c1cccc(S(=O)(=O)N2CCN(Cc3ccccc3)CC2)c1)C1CCS(=O)(=O)C1 (centres unmarked)	0.396%

Compound	hERG current change (%, negative = inhibition) at 1uM
CC(C)(CNC(=O)COc1ccccc1Cc1ccccc1)N1CCOCC1	-3.46%
C=CCOc1cccc(C2/C(=C(/O)c3ccccc3)C(=O)C(=O)N2CCN2CCOCC2)c1 (centres unmarked)	5.04%
COc1ccc(N(CC(=O)Nc2ccc(F)c(F)c2)S(=O)(=O)c2c(C)[nH]c(=O)[nH]c2=O)cc1	13.3%
O=C(CSc1ccc(-c2ccco2)nn1)Nc1cccc(F)c1	-1.42%
CN(CC(=O)Nc1ccc(F)c(F)c1F)C(=O)c1ccc2c(c1)S(=O)(=O)N=C1CCCCCN12	-2.65%
COc1cc(OC)cc(C(=O)OCC(=O)Nc2ccc3[nH]c(=O)[nH]c3c2)c1	-2.64%
CCOc1ccccc1OCC(=O)Nc1cccc(S(=O)(=O)N2CCCCCC2)c1	-4.09%
O=C(COC(=O)c1ncc(Cl)c(Cl)c1Cl)Nc1ccc(Cl)cn1	-35.7%
CCC(=O)C1CCCN(C(=O)CCc2nnc(-c3ccc4c(c3)OCO4)o2)C1 (centres unmarked)	8.58%
Cc1ccc(C(=O)/C=C/N(C)C)o1	16.9%
CC(=O)NCCc1cc2ccc(C)c(C)c2[nH]c1=O	15.4%
C(=N\Nc1nc2ccccc2[nH]1)/c1ccc2c(c1)OCCO2	10.5%
COc1ccc(Cl)cc1NC(=S)N1CCN(C(=O)C2CCCO2)CC1 (centres unmarked)	14.3%
CSc1cc(-c2ccccc2)n(Cc2c(Cl)cccc2Cl)c(=O)c1C#N	9.64%
O=C(Nc1cccc(Cl)c1)OCCOc1ccccc1	17.4%
CCOC(=O)c1nnn(-c2nonc2N)c1-c1ccc(F)cc1	13.5%
Cc1cccc(NC(=S)N2CCC(N(C)CC3CCCO3)CC2)c1C (centres unmarked)	-3.88%
Cc1nn(-c2ccc(C(=O)N3CCN(S(=O)(=O)c4ccccc4C(F)(F)F)CC3)cc2)c(C)c1Cl	-6.83%
S=C(NCc1ccccc1)NC1CCSc2ccccc21 (centres unmarked)	15.8%

Compound	hERG current change (%, negative = inhibition) at 1uM
Cc1cc(NN)nc(Cc2ccccc2)n1	10.1%
Cc1cc(OCC(O)CN2CCc3ccccc3C2)cc(C(C)C)c1.Cl (centres unmarked)	-32%
O=C(NCC1CCCO1)c1ccc2c(=O)n(CCc3ccccc3)c(=O)[nH]c2c1 (centres unmarked)	1.47%
Cc1c(NC(=O)c2cc3nc(-c4ccc(Cl)cc4)cc(C(F)(F)F)n3n2)c(=O)n(-c2ccccc2)n1C	-4.1%
CCCCSCCCNC(=O)CS(=O)Cc1nc(-c2cccc(C)c2)oc1C (centres unmarked)	-2.44%
CCN1/C(=C/C(C)=O)Sc2ccc(OC)cc21	0.528%
CCOC(=O)C1(Cc2cccc(OC)c2)CCN(Cc2csc(C(C)=O)c2)CC1	-0.373%
C/C(=N/Oc1nc(C)cc(C)n1)c1ccc(Br)cc1	7.09%
O=C(COC(=O)/C=C/c1ccc(OC(F)F)cc1)NC1CCCCC1	11.2%
Cc1csc(SCC(=O)Nc2cccc(C)c2C)n1	2.96%
COc1ccc(NS(=O)(=O)c2ccc(C)c(C(=O)NCCCN3CCCC3=O)c2)cc1	11.1%
CCCCn1c(N)c(N(CC(C)C)C(=O)CSc2nnc(-c3ccc(Cl)cc3)o2)c(=O)[nH]c1=O	13.9%
Cc1cccc(NC(=O)CSc2nc3nc(C)cc(C)c3c(=O)[nH]2)c1	11.3%
CCOC(=O)c1ccc(NC(=S)Nc2ccc(C)cc2)cc1	15.6%
COc1ccc(C(=O)NC(C)CCc2ccccc2)c(O)c1 (centres unmarked)	11.3%
NS(=O)(=O)c1cccc(NC(=O)c2cc(=O)c3ccccc3o2)c1	12.3%
CCCCn1c(N)nc2ccccc21.Cl	9.74%
CC(=O)OCC1OC(OC(C)=O)C(NC(=O)Cc2ccccc2)C(OC(C)=O)C1OC(C)=O (centres unmarked)	6.06%
